Measurements as given in PubChem BioAssay AID488969 (Vanderbilt High Throughput Screening Facility, 2010).
In all, about 110,000 compounds were measured (“z-score”: median about -0.1, highest 2% from about 2 on). The list shows a part of the results. Active and inactive are the calls of the source.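 Rule for the calls: active = z-score in the third read window above 3 or below -3; inactive = the rest.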

target: Metabotropic glutamate receptor 8 (Rattus norvegicus) (UniProt P70579); test: rat mGluR8 modulators via GIRK flux, primary screen, cell-based, thallium flux, HTS (AID 488969); details: HEK293 rat mGluR8, GIRK (G protein-gated inwardly rectifying potassium channel) thallium flux, FluoZin2; at 10 µM; stronger effect = higher value; submaximal glutamate (EC20) added with thallium
Chain of UniProt P70579 (P70579 whole entry, looked up): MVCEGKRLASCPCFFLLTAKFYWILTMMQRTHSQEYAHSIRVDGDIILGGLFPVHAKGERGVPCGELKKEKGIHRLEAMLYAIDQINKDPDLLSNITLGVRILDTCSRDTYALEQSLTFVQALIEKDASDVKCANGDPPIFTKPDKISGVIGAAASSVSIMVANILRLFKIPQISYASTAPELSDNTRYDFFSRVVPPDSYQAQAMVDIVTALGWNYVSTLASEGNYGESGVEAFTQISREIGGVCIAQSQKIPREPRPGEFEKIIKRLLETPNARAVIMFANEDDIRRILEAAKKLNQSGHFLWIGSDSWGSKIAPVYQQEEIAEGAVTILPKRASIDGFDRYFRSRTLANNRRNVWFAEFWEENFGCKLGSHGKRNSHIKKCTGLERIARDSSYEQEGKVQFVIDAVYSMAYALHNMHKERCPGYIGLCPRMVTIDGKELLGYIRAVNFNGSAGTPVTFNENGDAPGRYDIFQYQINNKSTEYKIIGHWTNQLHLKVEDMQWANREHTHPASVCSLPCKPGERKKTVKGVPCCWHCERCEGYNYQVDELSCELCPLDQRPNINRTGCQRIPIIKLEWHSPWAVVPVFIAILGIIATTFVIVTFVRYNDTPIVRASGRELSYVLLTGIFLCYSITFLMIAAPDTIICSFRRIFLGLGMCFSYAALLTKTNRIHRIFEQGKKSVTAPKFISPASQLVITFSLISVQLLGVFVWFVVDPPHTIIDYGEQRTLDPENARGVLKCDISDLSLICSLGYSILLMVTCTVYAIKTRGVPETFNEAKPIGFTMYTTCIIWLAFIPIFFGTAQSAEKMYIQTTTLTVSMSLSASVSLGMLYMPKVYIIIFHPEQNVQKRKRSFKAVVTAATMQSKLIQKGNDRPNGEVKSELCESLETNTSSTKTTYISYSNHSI

SMILES	z-score
O=C(C1CCC1)N1CCc2cc(S(=O)(=O)NCc3ccco3)ccc21	0.431
COc1ccc(N(CC(=O)NCC2CCCO2)S(=O)(=O)c2c(C)noc2C)cc1 (centres undefined)	-0.0554
CC(C)(C)C(=O)NC(=S)NCc1ccccc1	-0.201
C/C(=N/NC(=O)c1cnccn1)c1cccs1	0.746
CCNC(=S)N/N=C1\CCCCc2ccccc21	1.57
COc1ccc(S(=O)(=O)NCc2ccc3c(c2)cc(C)n3C)cc1	-0.259
COc1ccc(NC(=O)CSc2nc(C)cs2)cc1OC	-0.121
C=CCn1c(Cc2csc(N)n2)nnc1SCC(=O)Nc1ccc(C(=O)OCC)cc1	-2.2
COc1ccc(S(=O)(=O)NNC(=O)c2cc3c4ccccc4n(C)c3s2)cc1	-0.127
CCn1c(/C=C/c2ccccc2)nc2ccccc21	-0.168
Cc1ccc(C(=O)NC(c2ccccc2)C(Cl)Cl)cc1 (centres undefined)	-0.518
Cc1ccc(N=C2CCCN2Cc2ccccc2)c(C#N)c1	active: -3.47
COc1ccc(C(=O)NC(=S)Nc2ccc3c(c2)Cc2ccccc2-3)cc1	0.991
CCOc1ccc(Cl)cc1S(=O)(=O)NCc1cccnc1	-0.15
O=C(Nc1cccnc1Cl)c1cc(-c2ccco2)on1	-0.123
C=CCSC1=N/C(=C\c2ccc3c(c2)OCO3)C(=O)S1	-1.51
CCCNC(=S)NC1CCCC1	-0.0285

SMILES	z-score
Cc1cccc(NC(=S)NNC(=O)c2ccc(Br)o2)c1	1.14
O=C1CC(c2ccccc2)CC(O)=C1C=NCCCN1CCOCC1 (centres undefined)	-0.184
Cc1ccc(Cn2cc(/C=C/C(=O)O)c(-c3ccccc3)n2)cc1	-0.0908
O=C(CCCn1c(SCC(=O)c2ccc(Cl)cc2)nc2ccccc2c1=O)NCc1ccco1	-0.172
CN(CC(=O)NCCc1ccccc1)S(=O)(=O)c1cnc[nH]1	0.0116
Cc1cccc(N2CC(O)=C(c3nc4ccccc4n3C)C2=N)c1	-0.0977
CCOC(=O)CSC1=NC(=O)/C(=C\c2ccc(Cl)cc2)S1	0.239
Cc1cc(Cl)ccc1OCC(=O)Nc1ccccc1CO	-1.05
Clc1ccccc1CSc1ncn(-c2ccccc2)n1	-0.246
O=C1CC(NNc2ccccc2)C(=O)N1c1cccc(Cl)c1 (centres undefined)	-0.117
Cc1cc(C(C#N)c2cccc(Cl)c2)n2ncnc2n1 (centres undefined)	-0.553
O=C(C1CCN(S(=O)(=O)N2CCC3(CC2)OCCO3)CC1)N1CCc2ccccc2C1	-0.437
COC(=O)/C=c1\sc2ncnn2c1=O	0.574
O=C(COc1ccc(Cl)cc1Cl)NCCCCc1ccccc1	-0.144
CCNC(=S)N1CCC(c2nc3ccccc3s2)CC1	-0.222
Oc1ccccc1C1OCC2(CO1)COC(c1ccccc1O)OC2 (centres undefined)	-0.183
Cc1cccn2c(=O)c(/C=C(\C#N)S(=O)(=O)c3ccc(Cl)cc3)c(N3CCC(C(N)=O)CC3)nc12	-1.36
